Assay results from publication PMC4336329 (PLoS ONE, 2015).
Screen size: about 310,000 compounds; about 2,200 (0.71%) showed an effect of 50% or more. The effect is printed as a negative number. The list shows a part of the results.

These compounds were tested against human ether-à-go-go-related gene (hERG) potassium channel (human, UniProt Q12809) (assay: primary screen, population patch clamp on CHO cells stably expressing hERG).
Chain of human ether-à-go-go-related gene (hERG) potassium channel (Q12809 whole entry, looked up): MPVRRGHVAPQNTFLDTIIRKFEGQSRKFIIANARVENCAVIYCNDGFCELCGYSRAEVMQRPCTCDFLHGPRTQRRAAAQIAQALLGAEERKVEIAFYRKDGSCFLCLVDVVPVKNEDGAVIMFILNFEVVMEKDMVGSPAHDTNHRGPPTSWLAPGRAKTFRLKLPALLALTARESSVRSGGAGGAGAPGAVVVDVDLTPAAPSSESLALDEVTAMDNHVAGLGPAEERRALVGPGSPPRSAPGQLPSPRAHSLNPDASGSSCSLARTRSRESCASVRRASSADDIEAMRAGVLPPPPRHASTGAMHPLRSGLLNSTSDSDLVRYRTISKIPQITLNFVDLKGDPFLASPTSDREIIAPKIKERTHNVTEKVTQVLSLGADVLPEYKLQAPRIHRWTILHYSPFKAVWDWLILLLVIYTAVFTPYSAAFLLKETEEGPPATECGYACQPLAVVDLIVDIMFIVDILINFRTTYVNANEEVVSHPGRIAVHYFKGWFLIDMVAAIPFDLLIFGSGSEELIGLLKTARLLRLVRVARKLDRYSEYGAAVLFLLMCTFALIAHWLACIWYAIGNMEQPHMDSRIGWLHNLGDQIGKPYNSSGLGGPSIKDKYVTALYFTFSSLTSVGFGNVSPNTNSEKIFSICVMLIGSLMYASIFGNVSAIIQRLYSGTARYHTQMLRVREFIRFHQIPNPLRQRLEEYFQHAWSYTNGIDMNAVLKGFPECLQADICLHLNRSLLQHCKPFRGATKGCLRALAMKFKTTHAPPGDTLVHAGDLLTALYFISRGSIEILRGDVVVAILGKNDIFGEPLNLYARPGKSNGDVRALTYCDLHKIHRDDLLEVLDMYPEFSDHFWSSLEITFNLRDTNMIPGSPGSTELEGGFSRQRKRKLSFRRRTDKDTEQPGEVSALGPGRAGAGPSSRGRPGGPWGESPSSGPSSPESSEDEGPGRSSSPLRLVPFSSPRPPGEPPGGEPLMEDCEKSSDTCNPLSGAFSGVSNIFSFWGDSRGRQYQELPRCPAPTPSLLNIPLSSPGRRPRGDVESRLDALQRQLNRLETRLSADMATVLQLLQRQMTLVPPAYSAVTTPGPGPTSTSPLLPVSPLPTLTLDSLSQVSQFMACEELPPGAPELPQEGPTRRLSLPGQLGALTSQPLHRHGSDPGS

Structure (SMILES) | hERG current change (%, negative = inhibition) at 1uM
Cc1cc(Cl)ccc1OCC(=O)Nc1ccccc1CO | 14.4%
COc1ccc2c(c1OC)C(=O)N1C2SC(C)(C)[C@H]1C(=O)NCC(C)C (stereo partly drawn) | 16.7%
CCOC(=O)c1cccc(NC(=O)COC)c1 | 13.7%
COc1ccc(C2SCC(=O)N2c2nc3ccccc3s2)cc1 (stereo not drawn) | 10.4%
CN(CC(=O)NCc1ccc(F)cc1)Cc1ccc(Br)cc1 | 2.94%
Cc1cc(C)c2[nH]c(=O)c(CN(CC3CCCO3)C(=S)Nc3ccccc3)cc2c1 (stereo not drawn) | 11.7%
CCc1cccc(C)c1NC(=O)CSc1nc(C)c(C)o1 | 12.5%
Cc1cccc(NC(=O)CCN2CCC(C(N)=O)CC2)c1 | 16.9%
COc1ncccc1C(=O)N1CCCC(C(=O)c2cc(F)ccc2F)C1 (stereo not drawn) | 2.05%
Cc1cccc(NC(=O)c2cccc(N3C(=O)CCC3=O)c2)c1 | 2.55%
Cc1ccc2c(c1)CCCN2CC(=O)N(C)c1c(N)n(Cc2ccccc2)c(=O)[nH]c1=O | 11.8%
CN(Cc1ccccc1)C1=CC(=[N+]2CCCC2)CC(C)(C)C1.[I-] | -7.19%
Cc1ccc(-n2nnnc2-c2ccco2)cc1 | 7.04%
COc1ccc(-c2ccc3c(c2)S(=O)(=O)c2cccc(C(=O)NC4CCCCC4)c2C3=O)cc1OC | 11.4%
COC(CNC(=O)C(=O)NCC1CCCN1S(=O)(=O)c1cccs1)OC (stereo not drawn) | 6.62%
Cc1ccccc1C(=O)NCC(=O)OCC(=O)NC(C)C1CC2CCC1C2 (stereo not drawn) | 1.98%
COCCNC(=O)CCc1nc(-c2ccccc2)no1 | 12.1%
COc1ccc(-c2cc(-c3ccc(O)cc3)nc(N)c2C#N)cc1OC | -5.05%
CC(OC(=O)Cn1[nH]c(=O)c2ccccc2c1=O)C(=O)Nc1cccc(Cl)c1 (stereo not drawn) | -2.87%
O=C(COc1ccc2ccc(=O)oc2c1)N1CCN(C(=O)C2COc3ccccc3O2)CC1 (stereo not drawn) | 0.566%
O=C(NCCC1=CCCCC1)C1CCN(C(=O)c2ccc(Cl)cc2)CC1 | 4.87%
O=C(/C=C/c1ccc(Cl)c(Cl)c1)Nc1cccnc1 | 10.5%
CNC(=S)SCCOc1ccccc1 | 1.62%

Structure (SMILES) | hERG current change (%, negative = inhibition) at 1uM
COc1ccc(OC)c(S(=O)(=O)N2CCCC(C(=O)N3CCCCCC3)C2)c1 (stereo not drawn) | -0.35%
O=C(OCc1cccc([N+](=O)[O-])c1)c1ccc2ccccc2n1 | 8.72%
Cc1ccccc1OCCCC(=O)Nc1ccccc1C(F)(F)F | 2.3%
Cc1[nH]c2ccc(F)cc2c1CCN(Cc1cccnc1)C(=S)Nc1cccc(F)c1 | 9.6%
O=[N+]([O-])c1cc([N+](=O)[O-])c(Oc2ccc(F)cc2F)cc1NN1CCCCC1 | 9.35%
C=CCn1c(SCC#N)nc2sc(CC)cc2c1=O | 3.56%
O=C(Nc1nc2ccc([N+](=O)[O-])cc2s1)c1ccc(S(=O)(=O)N2CCCc3ccccc32)cc1 | -3.19%
COc1ccc(OC)c(C(c2c(O)nc(SC)[nH]c2=O)c2c(O)nc(SC)[nH]c2=O)c1 | 14.8%
CC(/C=C/C(=O)c1ccc(C)cc1)=C\c1ccccc1 | 12.5%
O=C(c1ccccc1CCc1ccccc1)N1CCCC1 | 11.7%
CCOC(=O)c1cc(-c2ccccc2)n(CCC(=O)O)c1C | 8.58%
COc1cc(OC)c(NC(=O)c2cccc(F)c2)cc1Cl | 6.95%
Cc1ccccc1N=C/C=C1\N(C)c2ccccc2C1(C)C | -51.2%
Fc1ccc(C2CC(c3cccs3)=NN2C(=S)Nc2ccccc2)cc1 (stereo not drawn) | 14%
NS(=O)(=O)c1ccc(NC(=O)/C=C/c2cccs2)cc1 | 10.2%
COC(=O)C1=C(C)N(c2ccc(Br)cc2)C(=O)/C1=C\c1ccco1 | 10.3%
COc1cccc(N2CCN(c3ncnc4c3[nH]c3ccccc34)CC2C)c1 (stereo not drawn) | 9.27%
C=CCOc1ccccc1CNCc1cccnc1.Cl | 21.8%
CCCCc1c(C)nc2c(OC)cccc2c1SCCC(=O)O | 5.03%
COc1ccc(OC(=O)c2ccc3nsnc3c2)cc1 | -0.133%
O=C(c1cccc(C(F)(F)F)c1)C1CCCN(C(=O)CN2CCCC2=O)C1 (stereo not drawn) | 5.23%
CC(=O)c1ccccc1NC(=O)CN1C(=O)CS/C1=C\c1nc(-c2ccc(C)cc2)cs1 | 7.86%
O=C(N1CCCCC1)C1(c2ccccc2)CCOCC1 | 19.8%

Structure (SMILES) | hERG current change (%, negative = inhibition) at 1uM
CCOC(=O)/C=c1\s/c(=C\c2ccc3cc(OC)ccc3c2)c(=O)n1CC(=O)NCc1ccc2c(c1)OCO2 | 16.4%
N#Cc1c(SCc2ccccc2)nc(N2CCOCC2)c2c1CCCC2 | 0.23%
CCOc1ccccc1C(=O)NC(C(=O)Nc1cccnc1)C(C)C (stereo not drawn) | 13.3%
CCCCOc1nc2ccccc2nc1C(C#N)S(=O)(=O)c1ccccc1 (stereo not drawn) | 5.93%
COc1ccc(NC(=O)CCCNC(=O)c2ccc(Cl)cc2)c(OC)c1 | 7.1%
COCCCC1CCN(C(=O)C2CCC(=O)N(C3CCCCCC3)C2)CC1 (stereo not drawn) | 6.29%
O=C(NCCN1CCN(c2ccccc2F)CC1)C1CC(=O)N(C2CCCC2)C1 (stereo not drawn) | 7.61%
COc1ccc(CN2CCC(CO)(Cc3ccccc3)CC2)cc1Cn1cccn1 | -55.9%
NC(=O)CC1NC(=O)c2ccccc21 (stereo not drawn) | 10%
CS(=O)(=O)N1CCC(C(=O)Nc2ccccc2)CC1 | 3.99%
CCCc1c(C(=O)N/N=C(\C)c2ccc(O)cc2)nnn1-c1nonc1N | 8.78%
CSc1ccc(S(=O)(=O)NCC(=O)OCC(=O)NC2(C#N)CCCCC2)cc1[N+](=O)[O-] | 17.3%
O=C(COC(=O)c1cccnc1Nc1cccc(C(F)(F)F)c1)NCc1ccc2c(c1)OCO2 | 14.3%
Br.CCOC(=O)CN1C2=NCCCN2c2ccccc21 | 7.99%
NC(=O)C1CCN(C(=O)c2cccc(CN3C(=O)c4ccccc4C3=O)c2)CC1 | 5.73%
C[C@H](NC(=O)c1cc2cc(Cl)ccc2n1C)C(=O)N1CCC(C(=O)O)CC1 | 9.78%
COc1cc(OC)c(OC)cc1CN1CCN(Cc2ccco2)CC1.O=C(O)C(=O)O | 13.6%
COc1ccc(-n2nc3c(c2NC(=O)COc2cccc(OC)c2)CS(=O)(=O)C3)cc1 | -6.43%
O=C(CNc1ccccc1)N/N=C/c1ccc2c(c1)OCO2 | 11.7%
C=CCN(c1ccccc1C(=O)O)S(=O)(=O)/C=C/c1ccccc1 | 8.66%
Cc1cc(C)c(NC(=O)CSc2nnc(CN3CCOCC3)n2C)c(C)c1 | 5.37%
CCOc1ccc(NC(=O)COc2ccc3c(c2)CCC3)cc1OC | 9.67%
CCOC(=O)CSc1ncc(OC)c(=O)[nH]1 | 19.3%

Structure (SMILES) | hERG current change (%, negative = inhibition) at 1uM
Nc1c(Cl)nc(-c2ccccc2)nc1Cl | 13.4%
Cn1c(NN)nc2sc3c(c2c1=O)CC(C)(C)OC3 | 12.3%
CCn1c(CC(=O)Nc2ccc(C)c(Cl)c2)nnc1SCCOc1ccc(OC)cc1 | 3.56%
COC(=O)c1cn(-c2ccccc2)nc1-c1cccnc1 | 0.491%
CS(=O)(=O)c1cccc(NC(=O)c2ccc(Cl)c(Cl)c2)c1 | 1.67%
CCCCN(CCCC)C(=O)C[n+]1cccc(/C=N/O)c1.[Cl-] | 3.73%
CCc1ccc(N2CC(C(=O)Nc3cccc(S(=O)(=O)N4CCCC4)c3)CC2=O)cc1 (stereo not drawn) | 2.63%
CC1CCN(C(=O)CNC(=O)CNS(=O)(=O)c2ccccc2)CC1 | 8.22%
CC(=O)N1CCCc2cc(S(=O)(=O)NC(C(=O)NC(C)c3ccccc3)C(C)C)ccc21 (stereo not drawn) | 1.38%
N#Cc1c(-c2ccc(Cl)cc2)ccn2nc(C3CCCCC3)nc12 | 14.9%
CCCCCCCc1ccc(-c2ccc(O)cc2)nc1 | 9.71%
N#C/C(=C/c1ccc(N2CCCCC2)o1)C(=O)Nc1ccc(Cl)cc1 | 12.8%
Cc1ccc(S(=O)(=O)N2CCN(C(=O)CC(C)C)CC2)cc1 | 5.17%
CCOC(=O)c1ccc(N=Cc2c(O)n(-c3ccccc3F)c(=S)[nH]c2=O)cc1 | -0.101%
CCN1CCN(c2ncnc3sc(C)c(-c4ccccc4)c23)CC1 | -25.9%
Cc1ccc(CCN2C(Nc3ccccc3)=NC[C@@H]2C)cc1 | -16.8%
CCC(=O)Nc1nnc(/C=C/c2ccccc2)s1 | 5.06%
CSCCC(NC(=O)c1ccc([N+](=O)[O-])cc1Cl)C(=O)OCC(=O)N(C)C (stereo not drawn) | 8.47%
COc1ccc(C(=O)N2CCCC(CCC(=O)NCc3ccccc3F)C2)c(OC)n1 (stereo not drawn) | 11.5%
COc1cccc(NC(=O)Nc2ccccc2Br)c1 | 13.4%
COc1ccccc1[C@@H]1C(c2ccc(F)cc2)=NN(c2ccccc2)[C@H]1C(=O)N1CCOC1=O | 11.9%
